Measurements as given in the supplement of paper PMC11417369.
This is one part of the list.

System: PfAP2-HC AP2 domain (GST-tagged)
Experiment: gcPBM binding intensity (ln(normalized median fluorescence intensity)); higher = stronger DNA binding
Method in brief: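 DNA-binding domains from P. falciparum, fused to GST and produced in E. coli, were put on an Agilent 4 × 180k double-stranded probe array for 1 h in 1× PBS holding 1% milk, 0.2 mg/ml BSA, 0.5% salmon testes DNA and 0.03% Triton X-100. Probes were primer-extended, 36 bp long and drawn from intergenic genomic regions, with negative controls included. After Alexa488 anti-GST antibody detection and a 488 nm scan, binding intensity was set as the highest Masliner-normalised natural-log median intensity across replicate spots of either probe orientation.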

In order of rising “gcPBM binding intensity (ln)” value:
1. TTCCTTTTTTTTTATTGTACAAAAATATCAAAAAGG [XGTACX_site8505]  9.18
2. TTTTTAAAATTTTTAAAAATATTATGTTAAATATAT [CACACA_negctrl_site415]  9.2
3. TTTTATTTCAATCCACAAGGGATAAAATAAAGTTTT [CACACA_negctrl_site699]  9.3
4. TTAAAAAAAATTATTTGTACTTAAAAATTTTATATT [XGTACX_site8751]  9.37
5. TTGAAAGAAAATAAAATAAAATAAAATAAAATAAAA [CACACA_negctrl_site859]  9.37
6. AAAAAAAAAAAAATCTCACACATAAAGAGATTATGA [CACACA_site4408]  9.43
7. TTTTTAATTTTATATACACACATAAAATATATGAAG [CACACA_site3145]  9.5
8. AAAAACTTTTCAAGTAGTACCATATCTACAATAGTA [XGTACX_site8927]  9.5
9. AATTTATAAGAATAAAGTACTAAAGATACAACTTTA [XGTACX_site7153]  9.52
10. TTTTATAAACAGAGGGGTACGGGAAAAAAAAAAAAA [XGTACX_site1480]  9.53
11. ATAGAATAAATTTTGTCATTTATTCCTTATATATAA [GTGCAC_negctrl_site227]  9.56
12. TATAAATTATATATTTGTACGTATATCACATATATA [XGTACX_site7053]  9.57
13. TTCTCATAATTAAATAGTACATATTTTAATAATCAC [XGTACX_site6116]  9.57
14. ATATATATGTATTTATGTACATATTATTTTTCTTAA [XGTACX_site8169]  9.58
15. ATTAAAGGAAGCAAAACATGCAACAGCAATATTGCA [TGCATGCA_site452]  9.6
16. AAAAAAAAAAAAAAAACATGCACAAATTATAAGTGA [TGCATGCA_site378]  9.6
17. CCGTATATTTTATATAGTACTCATCATATATTTTTA [XGTACX_site5560]  9.61
18. CAAATTGGGAAATTTTGTACATATAATAAGGATACC [XGTACX_site7728]  9.61
19. TTTGTACCGGCATTTTTTTTTTCTTTTTTTTTCCAA [XGTACX_negctrl_site323]  9.63
20. AAAATTATATATTATAGTACATAAAATTTTGATATA [XGTACX_site994]  9.63
21. AATAAAAATAAAATTGTATATTTTAAATGAAAATAA [CACACA_negctrl_site898]  9.65
22. TATTTTACAATAACAATACACACTATAATATATATA [CACACA_site1391]  9.67
23. ACATATGAAAAATATGCATGCAAATATTATTTAACA [TGCATGCA_site802]  9.71
24. CCTTTATTAAATAAATGTACATATTTTTGTGTTCTT [XGTACX_site2052]  9.71
25. TATATACTTTATAAATGTACATATAATGTATTATTT [XGTACX_site7313]  9.71
26. AATTATATAACAAATTGTACGAATGAAAATATTATT [XGTACX_site4237]  9.72
27. TGTTAAAGAGAAAGTACTACACATATTATGTGTTTT [XGTACX_site1435]  9.72
28. CATCAAAATGCTACATGTACATATATATAATATATT [XGTACX_site5207]  9.72
29. TTTATTGAATAAAATGCACACGCATGCGTTATTTAT [CACACA_site9154]  9.73
30. AAACTCTCTTATATTAAACACACATATATATATGTA [CACACA_site8865]  9.73
31. ACTACATAATACTATTCACACATTTTTTTTTTTTTT [CACACA_site5794]  9.74
32. ATAGATAAATTTACGGGTACTAAAATGGAATATGAA [XGTACX_site8637]  9.76
33. TATAATGAGGATGATAGTACGTATTAGTATAAAAAA [XGTACX_site6623]  9.78
34. TTAGTTATTATAATTTGTACACAAATGGTAAAGTAT [XGTACX_site2343]  9.78
35. TACATGAATATATAAAGAAAAAAAAAAAAACACACA [XGTACX_negctrl_site350]  9.79
36. TATTAAAAATGTTAAGTGCAAAAATAAAAATTGTGG [GTGCAC_site9854]  9.79
37. TTTATATATATTTATACACACAAACATAATACTACT [CACACA_site5161]  9.82
38. TAAAAATAGGAATACGCACACGATGATTAATTTATA [CACACA_site1835]  9.83
39. TATATGTTATATTTAACACACATATAAGGTACATAT [CACACA_site612]  9.83
40. GGATGTATTTATATGTGTATGTGTTTGGAAATATGT [XGTACX_negctrl_site99]  9.85
41. AAACAAAAGATATATACACACTAAACATAAAAAAAA [CACACA_site6161]  9.89
42. AATAAATAAAAATATATATATATAATATACATGTGT [TGCATGCA_negctrl_site369]  9.9
43. TTTTTAATTTTTTTTAAACACACACCGTACATTCAA [CACACA_site7925]  9.91
44. AAAAAAAAATACAAAATAGCAATAAATACACAAACG [GTGCAC_negctrl_site707]  10
45. TTTTTAAACCATGTTGTGCACATTTTTTTTGGATTT  10
46. ATTCACATATTATCTTTACACACTATATATAAGTTT [CACACA_site8901]  10
47. AAAAAAAAAAAAAACACACAGAACAATATATAAATA [CACACA_site982]  10.1
48. TATGTATGTTAGTGTGCACACATAAATATTATATAT [CACACA_site9121]  10.1
49. GTTGGTAGGATGTATGGTACACGTAGTATTTTTCTT [XGTACX_site2]  10.1
50. GAAATGAACAAGTGGGTGCGTATTAATTACATATTA  10.1
51. ATATATTGGAGCACAACACACACAAGTATATATATG [CACACA_site8435]  10.2
52. GATAATGAATGATGCACACTAAAAATATTCTACAAC [CACACA_site3622]  10.2
53. AGAAAAAAAAAACACACACACACACCGTCAATATAA [CACACA_site7895]  10.6
54. TGTGTTCAGTATTGCACACACACAACCAAATAAAAA [CACACA_site379]  10.6
55. ATTTTTTTTTTTTTTTTGGGGGGGTATACTTTTAAA [CACACA_negctrl_site1020]  10.7
56. AATATATATAAATAAACACACACAAATATAATAAAA [CACACA_site9176]  10.8
